Assay results taken from publication PMC6212790.
This is one part of the list. At the low end of the ranking the order means little.
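Also: rank score from −0.5 (least bound) to 0.5 (best bound).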

The sequences below were run against T1, GST-Rok-C97-191 (UniProt O34857) (assay: protein binding microarray). Details: Rok is a gene silencer of Bacillus subtilis; high values mean tight binding; most listed sequences are background and not binding sites; double strand, one strand shown.
T1 sequence: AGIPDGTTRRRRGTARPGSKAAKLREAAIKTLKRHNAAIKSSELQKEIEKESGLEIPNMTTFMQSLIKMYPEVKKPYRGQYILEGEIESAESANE
Work on AGTATCGC yielded a binding signal of 0.0182 E-score.
For CTCTCCAA, the binding signal was -0.122 E-score.
For AACATGAC, the binding signal was 0.0675 E-score.
Sequence GATCGAAA has a binding signal of -0.0146 E-score.
Sequence ATGAACGC has a binding signal of -0.0848 E-score.
With ACACGGAG the binding signal was -0.204 E-score.
Sequence AATGAGTC has a binding signal of -0.194 E-score.
AAGCAAGA gave a binding signal of -0.139 E-score.
Sequence AACCGCGA has a binding signal of -0.00712 E-score.
AGCTCCTG showed a binding signal of -0.194 E-score.
CTTACGAA showed a binding signal of 0.0521 E-score.
Work on ATTCTTAC yielded a binding signal of 0.129 E-score.
In the case of GGGGACGA, the binding signal is reported as -0.0863 E-score.
CATTCGTA was tested, and the binding signal was 0.0827 E-score.
Sequence CACAGATG has a binding signal of 0.0345 E-score.
In the case of GTGCGGCA, the binding signal is reported as -0.192 E-score.
In the case of GGTAGGAC, the binding signal is reported as 0.19 E-score.
For ATATCAAA, the binding signal was 0.127 E-score.
CGCAACCC showed a binding signal of -0.158 E-score.
Work on TCTCACCA yielded a binding signal of -0.161 E-score.
Work on AATAATCA yielded a binding signal of 0.131 E-score.
CCAGGGGA gave a binding signal of -0.12 E-score.
In the case of CGACCGCG, the binding signal is reported as -0.167 E-score.
Sequence AACGTCGG has a binding signal of -0.151 E-score.
For GAACAGAC, the binding signal was -0.0366 E-score.
For CAACTGGA, the binding signal was -0.0795 E-score.
Sequence AAACTCCA has a binding signal of -0.0566 E-score.
In the case of AACAGTTG, the binding signal is reported as 0.0682 E-score.
Work on ATGTCAGA yielded a binding signal of -0.0137 E-score.
ACAAAACA showed a binding signal of 0.075 E-score.
For TAGCAAAA, the binding signal was 0.132 E-score.
In the case of CTAGTATA, the binding signal is reported as 0.37 E-score.
With AACTGAGG the binding signal was 0.00289 E-score.
CAAGACCG gave a binding signal of -0.262 E-score.
Work on ATAAGCAG yielded a binding signal of 0.12 E-score.
Work on GCGAGCGA yielded a binding signal of -0.118 E-score.
In the case of TCGTAAGA, the binding signal is reported as 0.0452 E-score.
With AGAGATTC the binding signal was -0.123 E-score.
Sequence AATGTCAG has a binding signal of -0.105 E-score.
With TTAGGAAA the binding signal was -0.0685 E-score.
For ATGGCCAC, the binding signal was -0.16 E-score.
AAACGTTT was tested, and the binding signal was 0.00953 E-score.
GCTCATCC was tested, and the binding signal was -0.105 E-score.
GATCTCAA showed a binding signal of -0.121 E-score.
ATTCTAAG gave a binding signal of 0.192 E-score.
AACAATAG was tested, and the binding signal was 0.213 E-score.
AACTTCAG gave a binding signal of 0.15 E-score.
Work on AATCGTTC yielded a binding signal of 0.0218 E-score.
CATTCCTC gave a binding signal of 0.0829 E-score.
For ACGGTGCC, the binding signal was -0.187 E-score.
AGTACTAA showed a binding signal of 0.277 E-score.
For CCTCCGCG, the binding signal was -0.198 E-score.
Work on CCAAGGCC yielded a binding signal of -0.269 E-score.
Sequence AACTCATT has a binding signal of 0.0936 E-score.
With GTCACCTA the binding signal was -0.0923 E-score.
Sequence ATCCTGCA has a binding signal of 0.0671 E-score.
In the case of CAGACGCC, the binding signal is reported as -0.305 E-score.
With CCCTCCGG the binding signal was -0.308 E-score.
In the case of CCTCTTCA, the binding signal is reported as -0.193 E-score.
CTAGATGA was tested, and the binding signal was 0.0691 E-score.
Work on CACCGCCC yielded a binding signal of -0.307 E-score.
With CCTTGCCC the binding signal was -0.215 E-score.
Sequence CAATCTAC has a binding signal of 0.395 E-score.
Sequence ACGGGTCC has a binding signal of -0.206 E-score.
Work on AGTAACTG yielded a binding signal of 0.124 E-score.
With AGGGATTC the binding signal was 0.0183 E-score.
TCCAATAA gave a binding signal of -0.0574 E-score.
ACTAGTTC showed a binding signal of 0.318 E-score.
In the case of CTATATGA, the binding signal is reported as 0.0756 E-score.
AGCGGTCA showed a binding signal of -0.175 E-score.
AACGGGGG gave a binding signal of -0.198 E-score.
For GTCCGCAA, the binding signal was -0.0227 E-score.
In the case of AAAAACGT, the binding signal is reported as -0.0641 E-score.
For ATTAGAAG, the binding signal was 0.23 E-score.
With AATCCGAT the binding signal was 0.0337 E-score.
For ATTGACCG, the binding signal was -0.00184 E-score.
Work on TGCCTCCA yielded a binding signal of -0.16 E-score.
TAAGTTCA was tested, and the binding signal was 0.121 E-score.
CAAGGCGC gave a binding signal of -0.213 E-score.
Work on GGTAGACC yielded a binding signal of -0.0686 E-score.
GCTCAGAC was tested, and the binding signal was -0.241 E-score.
Work on GGGTAACC yielded a binding signal of -0.147 E-score.
With GGTCAAGA the binding signal was -0.181 E-score.
With CACCCCAC the binding signal was -0.11 E-score.
GGCTGGTA showed a binding signal of 0.169 E-score.
CAATCCGC showed a binding signal of -0.12 E-score.
In the case of AACGGTGA, the binding signal is reported as -0.0685 E-score.
Work on ATCCTGAG yielded a binding signal of 0.0291 E-score.
Work on CCAGAATC yielded a binding signal of -0.115 E-score.
In the case of ATCTGCGG, the binding signal is reported as -0.176 E-score.
CCTTTCCG showed a binding signal of -0.19 E-score.
CAGGGTCC was tested, and the binding signal was -0.321 E-score.
CTAGGCAC showed a binding signal of -0.149 E-score.
AAAGTCAC was tested, and the binding signal was -0.105 E-score.
Sequence CTCTAGAA has a binding signal of 0.0573 E-score.
Work on CGGACCGC yielded a binding signal of -0.252 E-score.
With AGCCAGCG the binding signal was -0.0812 E-score.
AGCGCATG gave a binding signal of -0.205 E-score.
AACAGAGC gave a binding signal of 0.0245 E-score.
CCCCCTTA showed a binding signal of -0.339 E-score.
ATCGGCGC showed a binding signal of 0.0019 E-score.
ATCGACTA gave a binding signal of 0.188 E-score.
ATAAGTCA was tested, and the binding signal was 0.0752 E-score.
For CTCTACTA, the binding signal was 0.2 E-score.
With GGGACCTA the binding signal was 0.0109 E-score.
With CGACCTTA the binding signal was 0.0683 E-score.
GAGAGTTA showed a binding signal of 0.0853 E-score.
Work on AACGGTTA yielded a binding signal of -0.0912 E-score.
AGATGGCG gave a binding signal of 0.0262 E-score.
TAGTCAGA gave a binding signal of -0.0101 E-score.
CTAAGACA gave a binding signal of -0.0904 E-score.
ATTTAACA was tested, and the binding signal was 0.213 E-score.
Work on ACGGCGCA yielded a binding signal of -0.112 E-score.
In the case of GGCTGGAA, the binding signal is reported as -0.118 E-score.
For ACAGCAGA, the binding signal was -0.142 E-score.
TGACCACA showed a binding signal of -0.14 E-score.
GTATAAAA showed a binding signal of 0.32 E-score.
For AAAAACGG, the binding signal was -0.125 E-score.
With ATCTGCAA the binding signal was -0.00127 E-score.
With ATGGGAAC the binding signal was -0.0604 E-score.
CTCTATCA gave a binding signal of 0.0167 E-score.
In the case of CTCGGAGA, the binding signal is reported as -0.0113 E-score.
With CACGCGGC the binding signal was -0.25 E-score.
For ATGGCATA, the binding signal was -0.0363 E-score.
Work on TCACCCCA yielded a binding signal of -0.026 E-score.
For AAATACTA, the binding signal was 0.434 E-score.
GGGGTTGA was tested, and the binding signal was -0.294 E-score.
TAAACGAA was tested, and the binding signal was -0.0721 E-score.
AAGAGTGC showed a binding signal of 0.029 E-score.
ACTATCAC gave a binding signal of 0.231 E-score.
Work on CTCCCTGA yielded a binding signal of -0.284 E-score.
Work on AGGTGCTA yielded a binding signal of 0.0183 E-score.
For TCTAATCA, the binding signal was -0.00413 E-score.
CTCCGACC gave a binding signal of -0.281 E-score.
CAGTACCG was tested, and the binding signal was -0.081 E-score.
CTTTCTAA gave a binding signal of 0.1 E-score.
AGTGGCTA gave a binding signal of -0.139 E-score.
Sequence CAAGCGGC has a binding signal of 0.0233 E-score.
In the case of AACCTTCC, the binding signal is reported as -0.00775 E-score.
With AATCTTCC the binding signal was 0.157 E-score.
GCGCACCA was tested, and the binding signal was -0.0434 E-score.
Sequence CGCCATCA has a binding signal of -0.123 E-score.
Sequence GCCTGTGA has a binding signal of -0.0709 E-score.
Work on TCGGAGAA yielded a binding signal of 0.199 E-score.
TCACCTCA showed a binding signal of -0.184 E-score.
AATCACAT was tested, and the binding signal was 0.218 E-score.
CAAAGCCG showed a binding signal of -0.208 E-score.
GTGGCAAA was tested, and the binding signal was 0.0701 E-score.
Sequence CAGAAGAC has a binding signal of -0.0817 E-score.
With AAGGGCTC the binding signal was -0.148 E-score.
Work on CATATGCG yielded a binding signal of 0.0731 E-score.
With CGGGGCGC the binding signal was -0.159 E-score.
Work on GATACAGC yielded a binding signal of -0.0567 E-score.
For ACCAACAA, the binding signal was -0.0896 E-score.
For TCGAGGCA, the binding signal was 0.00484 E-score.
With ACAGTTGC the binding signal was -0.0875 E-score.
Work on TAGCTCAA yielded a binding signal of 0.124 E-score.
Work on AGCTAAAG yielded a binding signal of -0.0914 E-score.
Sequence GATAGATA has a binding signal of 0.347 E-score.
CGTCGATA gave a binding signal of 0.0763 E-score.
In the case of CTGGTTTA, the binding signal is reported as 0.0421 E-score.
For GGGCTCCA, the binding signal was -0.125 E-score.
Sequence ATGTTCCA has a binding signal of -0.0592 E-score.
CTATGAAG was tested, and the binding signal was 0.0148 E-score.
Work on CTGCGCTA yielded a binding signal of -0.0572 E-score.
For GGTACGTA, the binding signal was 0.226 E-score.
For CTGACCAA, the binding signal was -0.0709 E-score.
CGTAGAGC was tested, and the binding signal was -0.00238 E-score.
Sequence AGTTTGCG has a binding signal of 0.156 E-score.
For AGTTCACA, the binding signal was 0.14 E-score.
Work on AACAATCC yielded a binding signal of 0.206 E-score.
For CGCGGTGC, the binding signal was -0.182 E-score.
